From PubChem BioAssay AID493208 (National Center for Advancing Translational Sciences (NCATS), 2011)
The campaign covered roughly 44,000 compounds. About 340 (0.77%) were called active. Not shown: some 5% with an inconclusive outcome. Calls follow the shape of the dose curve; as a rule, active = well fitted inhibition curve with a large enough effect; inconclusive = small, poorly fitted or top-dose-only effect; inactive = flat fitted curve, though single readings scatter. The list shows a part of the results.

assay: Acumen qHTS Assay for Inhibitors of the mTORC1 Signaling Pathway in MEF (Tsc2-/-, p53-/-) Cells: Sytravon; conditions: phospho-rpS6 immunofluorescence/PI, 24 h; series mostly up to 38.3 µM; activity change, negative = inhibition: at the top concentration;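 also: plate controls were DMSO for no effect and rapamycin for full effect; nearly all actives have a fitted effect of over 50% in size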
In short: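 Immunofluorescence of rpS6 phosphorylation in Tsc2-/-, p53-/- MEFs after 24 h compound exposure, normalized to propidium iodide signal. Activity is expressed as % positive cells, thresholded with 7.5 nM rapamycin.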

Activity change, negative = inhibition, inactive:
COC(=O)c1ccc(C2Nc3c(C)cccc3-c3cc(C)nn32)cc1 (configuration not stated) 3.74%
COc1ccccc1CNc1nc2c(S(=O)(=O)c3ccc(C)c(C)c3)nnn2c2ccc(Cl)cc12 0.396%
COc1ccc(NC(=O)C(NS(=O)(=O)c2cccc3nsnc23)C(C)C)cc1 (configuration not stated) -8.72%
COc1ccc(NC(=O)c2cc3ccccc3o2)c(OC)c1 -1.26%
O=C(c1ccc(F)cc1)c1cn(Cc2ccccc2)c2cc3c(cc2c1=O)OCO3 -14.6%
O=C(Nc1c(C(=O)N2CCN(c3ccccc3F)CC2)oc2ccccc12)c1cccc(F)c1 -10.9%
COc1ccc(C2=CC(c3cc(Br)ccc3F)n3c(nc4ccccc43)N2)cc1 (configuration not stated) -1.26%
Cc1oc(-c2ccc(C(=O)Nc3ccc(F)cc3)cc2)nc1COc1ccccc1 -0.391%
CC1CCCN(c2cc3c(cc2F)c(=O)c(S(=O)(=O)c2cccc(Cl)c2)cn3Cc2ccccc2)C1 (configuration not stated) -0.743%
O=C(COc1ccccc1Cl)Nc1ccc(-c2nc3ccccc3s2)cc1 -20.2%
COc1ccc(CCNC(=O)C(=O)NCC(c2ccco2)S(=O)(=O)c2ccc(C)cc2)cc1 (configuration not stated) -13.7%
CC(C)NC(=O)c1ccc(Cn2c(SCc3ccc(F)cc3)nc3cccnc32)cc1 -14.3%
O=C(CCn1c(=O)c2cccn2c2cccnc21)N1CCN(c2cccc(C(F)(F)F)c2)CC1 -6.73%
COc1ccc(OC)c(/C=C/c2nc3ccccc3c(=O)n2-c2ccc(F)c(Cl)c2)c1 9.42%
Cc1ccc(NC(=O)C2CCCN(S(=O)(=O)c3c(C)n[nH]c3C)C2)c(C)c1 (configuration not stated) -9.92%
COc1ccc(C(=O)/C=C/c2cn(CC(O)CN3CCc4ccccc43)c3ccccc23)cc1OC (configuration not stated) -6.63%
CCC(C(=O)Nc1cc(C)ccc1C)n1c(=O)c(C(F)(F)F)nc2ccccc21 (configuration not stated) -1.81%
COCC(=O)n1nc(-c2ccco2)nc1NCc1ccccc1Cl -5.52%
COc1cc(OC)cc(C(=O)Nc2ccc(-c3nc4ccccc4s3)cc2C)c1 1.32%
Cc1cc(C)n(-c2nc(C)c(C)c(=O)n2CC(=O)Nc2ccc([N+](=O)[O-])cc2)n1 -1.07%
COc1ccccc1CNC(=O)CCc1c(C)c2cc3c(C)c(C)oc3cc2oc1=O 3.07%
CCc1nn(CC(=O)NCc2ccco2)c(=O)c2cc3c(OC)cccc3n12 -3.69%
CCOC(=O)c1ccc(NC(=O)Cn2cc(C(=O)C3CC3)c3ccccc32)cc1 11.8%
COc1ccc(CCNC(=O)c2ccc3c(c2)N(Cc2ccc(F)cc2)C(=O)c2ccccc2S3(=O)=O)cc1OC -0.559%
Cc1c(C(=O)Nc2cccc(C(F)(F)F)c2)sc2nc[nH]c(=O)c12 -10.3%
Cc1ccc(-n2ncc3c(NCCCN4CCOCC4)ncnc32)cc1C 6.86%
CCOC(=O)c1ccc(NC(=O)CCCn2c(=O)c3cccn3c3ccccc32)cc1 11.1%
COc1ccc(OC)c(C2=NS(=O)(=O)N(C)C(C(=O)Nc3ccc(F)cc3F)=C2)c1 0.4%
O=C(CSc1cn(CC(=O)N2CCCCC2)c2ccccc12)Nc1ccccc1 -4.85%
N#Cc1nc(-c2ccc(COc3ccc(Cl)cc3)o2)oc1N1CCC(C(N)=O)CC1 0.554%
Cc1ccc(C)c(NC(=O)C2CCCN(c3ncnc4onc(C)c34)C2)c1 (configuration not stated) -2.36%
O=C(Cn1c(=O)n(-c2ccccc2)c(=O)c2c3c(sc21)CCCC3)Nc1ccc(F)cc1F 4.05%
Cc1cc(=O)n(Cc2ccc(Cl)cc2)c2c1c(C)nn2-c1ccccc1 0.437%
COc1ccc(OC)c(S(=O)(=O)NCCS(=O)(=O)N2CCN(c3ccccc3)CC2)c1 -0.217%
COc1cccc(CNC(=O)c2cccc(-n3c(C)nc4cccnc43)c2)c1OC -4.78%
O=C(NCc1noc2ccccc12)N1CCN(c2ccccc2)CC1 -1.49%
CCc1ccccc1NC(=O)N1CCCn2nc(C)cc21 -3%
O=C(NCC(c1ccco1)S(=O)(=O)c1cccs1)c1ccc(F)c(F)c1 (configuration not stated) -4.93%
Cc1nc(-c2ccccc2)sc1-c1ccc(SCC(=O)NCc2ccccc2Cl)nn1 1.69%
CC1CCN(c2nn3c(=O)c(C(=O)NC(C)C)cnc3s2)CC1 0.892%
Cc1nn(C)c2c1c(-c1ccccc1)cc(=O)n2CC(=O)NC(C)c1ccccc1 (configuration not stated) 3.33%
CCCOc1ccc(C2c3c(-c4c(C)cc(C)cc4O)n[nH]c3C(=O)N2CCO)cc1 (configuration not stated) 0.458%
CCOc1ccc(-c2cc3nc(C4CCN(C(=O)OC(C)(C)C)CC4)c(C(=O)Nc4cc(OC)ccc4OC)cn3n2)cc1 1.78%
Cc1ccc(Cl)cc1NC(=O)c1sc(-n2nc(C)c(Cc3ccc4c(c3)OCO4)c2C)nc1C 0%
O=C(Cn1c(=O)n(Cc2ccccc2)c(=O)c2sc3ccccc3c21)Nc1ccccc1 -12.5%
CCCCCn1c(CN2CCN(c3ccc(OC)cc3)CC2)nc2c1c(=O)[nH]c(=O)n2C 3.71%
Cc1ccc(Cl)cc1NC(=O)Nc1cccc(OCc2cc(=O)n3ccccc3n2)c1 -11.7%
COc1ccc(-n2c(-c3ccco3)nc3c(cnn3-c3ccccc3Cl)c2=O)cc1 1.76%
COc1ccc(C)cc1NC(=O)CC1NCCNC1=O (configuration not stated) 1.01%
Cc1cc(=O)n(Cc2ccccc2)c2c1c(C)nn2C -19.6%
COCCNC(=O)c1ccc2nc(Cc3ccccc3)oc2c1 3.95%
CC(C)N(CCCNC(=O)Cn1ncc2c([nH]c3ccccc32)c1=O)Cc1ccccc1 -9.26%
Cc1cc(C)c2c(=O)cc(C(=O)Nc3sc4c(c3C(=O)NCC3CCCO3)CCCC4)oc2c1 (configuration not stated) -3.89%
Cc1ccc(Nc2nnc(-c3ccc(C)c(S(=O)(=O)N4CCOCC4)c3)c3ccccc23)cc1 6.28%
CCC(=O)C1=C(c2ccc(OC)c(OC)c2)N(C(=O)CC)n2c(nnc2-c2ccc(C)cc2)S1 -0.117%
CC(=O)c1ccc(N2CCN(c3ccc4cc(S(=O)(=O)N5CCCCC5)ccc4n3)CC2)cc1 3.25%
COc1ccc(-c2nc(CS(=O)(=O)CC(=O)NCCc3ccc(C)cc3)c(C)o2)cc1 -5.05%
CCOC(=O)c1ccc(NC(=O)CSc2nc3ccccc3c(=O)n2CCC(=O)NC2CCCCC2)cc1 1.63%
COc1ccc(OC)c(CNS(=O)(=O)c2ccc(-c3coc(C)n3)cc2)c1 -22.1%
CC(=O)c1cc(-c2ccccc2)n(CC(=O)Nc2ccc(C)c(C)c2)c1C 1.16%
CCOc1ccc(CNC(=O)CS(=O)(=O)c2cccc3nsnc23)cc1 -4.4%
COc1ccccc1-c1nc(SCC(=O)NCc2ccccc2)c2c(=O)n(C)c(=O)n(C)c2n1 3.08%
COc1ccccc1-c1noc(-c2ccc(NC3CCCC3)c([N+](=O)[O-])c2)n1 -4.8%
Cc1cc2nc(-c3ccc(NC(=O)c4ccccc4F)cc3)oc2cc1C 8.85%
Cc1cccc(C(=O)Nc2ccc3nc(SCCOc4ccccc4)sc3c2)c1 0.479%
COc1ccc(CCNc2nc(SCc3ccc(Cl)cc3)nc3ccccc23)cc1OC -0.625%
Nc1ncc(S(=O)(=O)Nc2ccc(F)cc2F)cn1 -2.1%
COc1ccc(C2C=C(c3ccccc3)Nc3nc(NC(=O)/C=C/c4ccccc4Cl)nn32)cc1 (configuration not stated) 5.53%
CCc1cnc2c(c1SCC(=O)NCc1ccc(F)cc1)c(=O)n(C)c(=O)n2C 0.166%
Nc1c(C(=O)Nc2cccc(F)c2)c2ccccn2c1C(=O)c1ccccc1 -0.225%
CCOC(=O)c1c(NC(=O)COc2cccc(C)c2C)sc(C(C)=O)c1C 12.7%
COc1ccc(N2CCN(C(c3ccccc3F)c3sc4nc(-c5ccco5)nn4c3O)CC2)cc1 (configuration not stated) -7.53%
COc1ccc(Cl)cc1NC(=O)Cn1c(=O)c(-c2ccccc2NC(C)=O)nc2ccccc21 -16.6%
Cc1cc(C)c2c(c1)c(C)cc1nnc(SCC(=O)c3ccc(F)cc3)n12 -1.38%
COC(=O)c1ccccc1NC(=O)Cn1c(=O)cc(C)c2c(C)nn(C)c21 -1.33%
CCCCC(=O)N1CCc2cc(OC)c(OC)cc2C1COc1ccc(OC)cc1 (configuration not stated) 8.44%
COc1ccc(NC(=O)CN2C(=O)COc3ccc(S(=O)(=O)N4CCCCC4)cc32)cc1OC -1.17%
Cc1ccc(C)c(Cn2c(C(=O)O)c(CNCc3cccs3)c3ccccc32)c1 -0.581%
Cc1cc(-c2ccccc2)n2nc(-c3ccccc3)cc2n1 -8.32%
CN(C)CCNC(=O)C(=O)NCC(c1ccc2c(c1)OCO2)N1CCOCC1 (configuration not stated) 0.4%
Cc1c(C(=O)O)oc2c1-c1nn(Cc3ccc(Cl)cc3)cc1CC2 -1.39%
CCOc1ccc(C(c2c(O)cc(C)n(Cc3ccco3)c2=O)N2CCCCC2)cc1 (configuration not stated) -8.87%
Cc1ccc2cccc(NC(=O)C(C)Oc3ccc(Cl)cc3Cl)c2n1 (configuration not stated) -15.2%
COc1cccc(CNS(=O)(=O)c2ccc3c(c2)C(C(C)C)C(=O)N3)c1 (configuration not stated) -24.3%
Cc1ccc(NC(=O)CC2Sc3ccc(C(F)(F)F)cc3NC2=O)cc1 (configuration not stated) -16.8%
COc1ccccc1C(=O)Nc1c(C(=O)Nc2ccccc2F)oc2ccccc12 -10.7%
CC(=O)c1ccc(NC(=O)CN(C)S(=O)(=O)c2cnc[nH]2)cc1 -2.51%
Cc1cc(Cl)ccc1OCC(=O)N1CCC(c2nc3ccccc3s2)CC1 -9.18%
COc1ccc(CNC(=O)Nc2cn(CC(C)C)c(=O)c3ccccc23)cc1 1.95%
Cc1ccc(OCCSc2nc(C)c(Cc3ccccc3)c(=O)[nH]2)cc1 -0.78%
Cc1cc(C)c(NC(=O)CSc2nncn3c2cc2oc(C)cc23)c(C)c1 0.774%
O=C(CCCc1ccccc1)NC1CC(=O)N(c2ccc(F)cc2)C1 (configuration not stated) 2.12%
CC(=O)c1cccc(NS(=O)(=O)c2cc3c(cc2C)N(C(C)=O)CCO3)c1 1.6%
Cc1ccc(NC(=O)N2CCC(CN3CCCC3)CC2)c(C)c1 -9.17%
Cc1ccc(-c2nc(C(=O)NCc3ccccc3Cl)c3n2CCCCC3)cc1 -1.11%
CCc1cccc(NC(=O)c2ccc(NC(=O)N3CCSc4ncccc43)cc2)c1 0.143%
Cc1ccc(NC(=O)N2CCN(c3cc(-c4noc(C)n4)ccc3C)CC2)c(F)c1 -11.9%
